# Measurements from publication PMC10726135.
# Some of the results follow. At the low end of the ranking the order means little. The protein was read in a cell extract, so binding may be indirect.
# Target: T1, HNF4alpha2 (COS-7 nuclear extract) (UniProt P41235)
# T1 sequence: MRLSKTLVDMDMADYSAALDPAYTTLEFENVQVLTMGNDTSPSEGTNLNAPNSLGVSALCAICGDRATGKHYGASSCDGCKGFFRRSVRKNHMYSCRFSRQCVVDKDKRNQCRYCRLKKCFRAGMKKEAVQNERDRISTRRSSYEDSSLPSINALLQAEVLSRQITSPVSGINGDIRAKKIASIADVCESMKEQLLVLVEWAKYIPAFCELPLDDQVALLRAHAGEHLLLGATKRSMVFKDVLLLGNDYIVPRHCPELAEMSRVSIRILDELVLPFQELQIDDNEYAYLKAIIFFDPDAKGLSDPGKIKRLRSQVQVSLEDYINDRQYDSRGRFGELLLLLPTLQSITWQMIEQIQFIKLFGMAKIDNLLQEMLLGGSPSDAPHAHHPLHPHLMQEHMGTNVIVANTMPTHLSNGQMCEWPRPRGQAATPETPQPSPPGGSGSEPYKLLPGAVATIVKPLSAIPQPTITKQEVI
# Test: protein-binding microarray
# Conditions: COS-7 nuclear extract on double-stranded Agilent 4x180k PBM; binding buffer, salt, pH and temperature not given; high values mean tight binding; double strand, one strand shown; sequences stand for … in …GCCTAGGGAGATTAGAGTATCGGTCGA
row,Sequence,binding signal (log2 normalized intensity)
1,ATTACCCTATGTCCCCCGACCCGCCCGACT,5.9
2,CCAATAGACATAACTCAAACATCTGACAGA,-1.17
3,AAAAGTAGATTGTTATTTACCCTACATGGC,-0.866
4,AATCATCGCACCTAAGGGCACCCTTCCTGC,-1.19
5,ACAGCGCCGCCACCCGGTTGGCGCCAATAC,-1.16
6,ACCTGACCCAGGCGAGGGTTGCTGCACCGA,-1.21
7,TCAGTTGCAGAAAAACAGGTTCTGCAACAC,0.883
8,GAGACTCTCTCTCCTCTCCAGCCCATCCTA,2.36
9,TACCTAGGAATGCTATCTAGCATGACAAGA,-1.03
10,ACTTCCTTCAAACCTGGGAAAACTTACGCA,-1.21
11,AATGGAGAGGATTTTGGAATGTCGCATAGC,0.274
12,TTGAATAGCATTTTGCAGAGACGGCAAGCC,-1.13
13,ATGCCAAAGAAGCAAAGGTTGGCTAAAGAT,0.0763
14,AAACATTCCTCCCTCCCTCTTCCCTCATAT,2.94
15,CCCTGACCAAGGGTCATGCTGGTCTCCTTG,2.07
16,ACTTTGCCCCCAAGAAAAGGTTCCTATGTA,1.48
17,GGTTGCTGTTATCTTCATTTATAGATAAGC,0.336
18,ACATCTCCCACTGTGGACTCTGAGCCTCCT,3.78
19,AGCATCGCTGGACTCTGCTCCTAAGGCAGG,2.19
20,AGGGAATCCTGCATTATCAGGCAAGGGTGG,-1.05
21,CTTGCCAAGCCTAGTTTTGATTATCACTAC,-0.838
22,ACAGGCTCAGCAAAGTCAGGTCAGTAGCCC,-1.23
23,ATGTTAGGCTGGAAAACTGGGCTGTTATTT,0.775
24,AGGAATTCAACCAATGTGGAGCTGCTGAAC,-1.19
25,CTTCGAGCCTGTGGTTTCTCTTTGTATACA,1.32

row,Sequence,binding signal (log2 normalized intensity)
1,TACTGTACTTTGCTCTCAGCACACTCTGGT,1.68
2,GCTTATCGTCCCTTCCCTCTGTCTTCAAAA,1.61
3,TTGGGGCTAATGTCTCTCTGGCCGGAGGGG,0.0294
4,ATAAACTGGAAAGGGCTTCAGAGTCGATAG,-1.08
5,AGGGGGCCTCCTGCCCCAGGAGCAGGATAG,-1.15
6,TGTGATTTGAAATTTGTCCTGGTCACACCA,1.53
7,TTACAAAGTGGTTGTAGCAGTTCACACTCC,-0.796
8,GGAGCTGCCGCAACATTGTCCAGCAGACAC,-1.14
9,TTAACTGGACAAGGAGGCTGGGCTGCATAG,-1.06
10,ATCTCAGCTCACTGTAACCTTTGCCCCCCT,8.75
11,TCCTAAACCCCACAGAACAAACAGTACATT,1.22
12,GCGCCGGGGAAGCTGTTGGGCGCCGGAACT,-1.23
13,TCCAGTTGTATCGCCTCCACCTGCACCATT,-0.718
14,TGTGCTCCTGTAGAATGACCCCCTGGGCTC,4.3
15,AAACAAAATGCATTTCCTTATTCTTAACAA,-1.14
16,TGTTTATCAGAGCAAAGTTCAATTTCCAAC,3.49
17,AGGAATGCAGCCCTGCCACTCTTTTTTAGA,-1.04
18,AGGCAAACTTTATCAAGACTGCAGCCAGGG,-1.1
19,AGTAGGGCGTCTCTTAGTATTACCATGTCC,0.926
20,ACTTGGACCAGCTTTTGGAAGGACTTCGAA,1.06
21,CAGGGCTAAAGTCAGGGGCAGGTGGAGGTG,-0.182
22,TCCACTGCATCAGTGCTGACCTACCTGACC,1.87
23,TATAAAAGGCTGTCACACTGGCCTTTGCCC,5.09
24,AACTAGCAACTTGGACCTTGATAGGAGTTA,2.88
25,TCATTCCTAGCCCCACCAAACTGACAGGTT,3.21

row,Sequence,binding signal (log2 normalized intensity)
1,ATGAGACATTGTGTCAATTCCAAAGTTCAA,4.43
2,GTGAAACATCCCACTCAAAGGTCAGGGCTA,0.969
3,TCCAGCTGCCAGGGAGACAAAGTGTCACAA,-1
4,TGCCGACCTCCTGACTAAAGTTCATTGCTT,2.03
5,GATTGACCTGACCCAGGCGAGGGTTGCTGC,-0.89
6,ATAGTGACCACCTGGTGGACCCAGCTGGTA,2.36
7,ATAAACACAATTCTTTGGTACTTTGAGCCA,2.41
8,TTGGATCCAGCTCCTGATGTTTGGTCTTAT,1.11
9,CTCCTCTCTGTAGTCCTCAGCAATAACTTA,1.25
10,GTCTTAGTGCATTCCTTCCCAAGTGCTAGC,0.469
11,CCTTAGGATGTGGGGTATCAGGTGGTGATG,1.86
12,CCTTTATCGAACCTATTGTTTAATCTTTGA,2.41
13,CTATCTGCCTGCAGGAGAGAGCAAAGTCCA,7.16
14,AGGGGAGGGTGACCAGATTAATTACCCACA,-1.09
15,GGGCCTCAAGGGAATCTGCTGTAATAAAGC,-1.17
16,GGGACTTTGCCCTTTTTAATGTTTCATTAA,3.92
17,GAGATGAGGCTCAGACCTGACCTTTGGATT,7.99
18,TAGTAGGGTCAAAGTCTGGATCCGTTAACA,4.3
19,GCGAACCATTTCCCATGGGACTGGCAAAGC,-1.1
20,GATCTGAGATGCTGGGTGGCATAGTTGATG,1.07
21,TCTTCACCAAATCATTTCACTTCCTTTGTT,0.193
22,CAATGCTGGAGGGACTGTGATGAAGGCAGA,-0.984
23,TGCTGGAGAAAGAGGGGAAGGATGAATTTA,-1.13
